# Laboratory results: the supplement of paper PMC7826260
# This is one part of the list. One pool of 16,384 single-stranded DNAs met each Rep nickase domain in vitro for 1 h at 37 °C with 3 µM enzyme; only the middle of the 90-letter strands is printed. Values are log2 of uncut reads against the no-enzyme pool; the lower, the more was cut; hits are not called. Counts are relative to all reads; values above 0 arise when much of the pool is cut.
# Tests used:
# Experiment in all cases: uncleaved DNA left, log2 of reads against the no-enzyme library (log2 ratio); higher = less cleavage (more negative = more Rep cleavage of the k-mer); sequences stand for … in CTCGTCCG…ACCGGAGA
# [1] = system: T1, Rep nickase domain of Muscovy duck circovirus
# T1 sequence (residues 1-111 of Rep, tag left off): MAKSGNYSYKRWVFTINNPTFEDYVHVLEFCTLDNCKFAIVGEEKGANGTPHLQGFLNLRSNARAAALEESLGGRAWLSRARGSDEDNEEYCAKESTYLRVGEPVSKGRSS
# Experimental: (§1)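 A pool of 90-nt single-stranded DNAs with seven random bases just before the constant AC of the nick site (name = the seven bases) was cut by 3 µM recombinant His6-SUMO-tagged Rep nickase domain (300 nM DNA, 50 mM HEPES pH 8.0, 50 mM NaCl, 1 mM MnCl2, 1 h, 37 °C, three replicates). Uncut DNA was amplified and sequenced.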
# [2] = system: T2, Rep nickase domain of banana bunchy top virus
# T2 sequence (residues 1-94 of Rep, tag left off): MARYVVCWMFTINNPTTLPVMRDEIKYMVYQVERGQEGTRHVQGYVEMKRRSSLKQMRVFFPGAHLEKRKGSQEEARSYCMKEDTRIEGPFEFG
# Experimental: as §1
# [3] = system: T3, Rep nickase domain of cabbage leaf curl virus
# T3 sequence (residues 1-116 of Rep, tag left off): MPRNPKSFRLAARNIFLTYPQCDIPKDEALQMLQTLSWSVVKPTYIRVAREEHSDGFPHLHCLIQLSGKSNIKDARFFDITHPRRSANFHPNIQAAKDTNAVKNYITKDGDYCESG
# Experimental: as §1
# [4] = system: T4, Rep nickase domain of chickpea chlorotic dwarf virus
# T4 sequence (residues 1-124 of Rep, tag left off): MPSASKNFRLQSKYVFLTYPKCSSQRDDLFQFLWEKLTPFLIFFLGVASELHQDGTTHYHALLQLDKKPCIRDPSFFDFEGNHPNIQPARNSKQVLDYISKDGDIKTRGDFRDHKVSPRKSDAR
# Experimental: as §1
# [5] = system: T5, Rep nickase domain of faba bean necrotic yellows virus
# T5 sequence (residues 1-98 of Rep, tag left off): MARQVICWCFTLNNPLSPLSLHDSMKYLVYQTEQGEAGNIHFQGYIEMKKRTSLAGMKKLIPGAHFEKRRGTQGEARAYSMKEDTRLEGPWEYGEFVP
# Experimental: as §1
# [6] = system: T6, Rep nickase domain of maize striate mosaic virus
# T6 sequence (residues 1-117 of Rep, tag left off): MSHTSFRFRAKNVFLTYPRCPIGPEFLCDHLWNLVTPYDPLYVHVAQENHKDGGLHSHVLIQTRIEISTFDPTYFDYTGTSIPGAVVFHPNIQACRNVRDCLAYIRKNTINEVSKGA
# Experimental: as §1
# [7] = system: T7, Rep nickase domain of porcine circovirus 2
# T7 sequence (residues 2-116 of Rep, tag left off): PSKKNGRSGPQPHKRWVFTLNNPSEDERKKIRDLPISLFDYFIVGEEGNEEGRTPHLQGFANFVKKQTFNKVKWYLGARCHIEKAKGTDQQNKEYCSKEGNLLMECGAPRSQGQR
# Experimental: as §1
# [8] = system: T8, Rep nickase domain of tomato golden mosaic virus
# T8 sequence (residues 1-124 of Rep, tag left off): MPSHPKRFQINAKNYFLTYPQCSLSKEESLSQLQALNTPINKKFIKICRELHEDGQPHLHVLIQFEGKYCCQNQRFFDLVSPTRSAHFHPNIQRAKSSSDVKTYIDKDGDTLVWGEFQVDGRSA
# Experimental: as §1
# [9] = system: T9, Rep nickase domain of tomato yellow leaf curl virus
# T9 sequence (residues 1-136 of Rep, tag left off): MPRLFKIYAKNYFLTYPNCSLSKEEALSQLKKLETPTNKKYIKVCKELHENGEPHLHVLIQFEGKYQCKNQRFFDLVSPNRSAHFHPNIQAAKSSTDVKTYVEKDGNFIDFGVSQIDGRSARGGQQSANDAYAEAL
# Experimental: as §1
# [10] = system: T10, Rep nickase domain of wheat dwarf virus
# T10 sequence (residues 1-137 of Rep, tag left off): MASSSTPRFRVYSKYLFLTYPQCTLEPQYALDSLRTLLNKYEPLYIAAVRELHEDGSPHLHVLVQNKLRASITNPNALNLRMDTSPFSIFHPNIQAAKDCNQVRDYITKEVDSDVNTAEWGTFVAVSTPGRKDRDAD
# Experimental: as §1
Sequence,uncleaved DNA left (log2) [1],uncleaved DNA left (log2) [2],uncleaved DNA left (log2) [3],uncleaved DNA left (log2) [4],uncleaved DNA left (log2) [5],uncleaved DNA left (log2) [6],uncleaved DNA left (log2) [7],uncleaved DNA left (log2) [8],uncleaved DNA left (log2) [9],uncleaved DNA left (log2) [10]
TACGCAA,-0.0448,0.0231,-0.151,-1.04,-0.0247,-0.682,0.0373,-0.114,-0.106,0.0806
ACCCTTA,0.0114,-0.0753,-0.0571,-0.762,0.106,-0.191,-0.122,0.0697,-0.124,-0.0237
GCATTGT,-0.194,-0.141,-0.585,-0.559,-0.16,-1.07,-0.143,-0.104,-0.0734,-0.079
AAGAATG,0.0596,-0.0379,0.0825,0.608,0.0631,1.24,0.06,0.0207,-0.09,0.000385
TCCAGCG,0.143,-0.00341,-0.618,0.613,0.0358,-0.655,0.17,-0.00218,0.0147,0.043
TTAGTCT,0.017,0.00779,-0.0943,-2.26,-0.0121,-0.581,-0.0689,-0.00502,0.0365,-0.143
ATCCAAG,-0.0553,-0.0135,-0.802,-0.367,-0.0885,-1.05,0.0839,-0.0049,-0.0231,-0.0675
AAACGTG,0.0533,0.0283,-0.57,-0.761,0.0425,-1.07,0.155,0.0802,0.00895,-0.0287
CAGGGGT,-0.156,-0.0559,0.153,1.27,-0.119,1.61,-0.0109,-0.0532,-0.0773,-0.113
CGGCCTG,-0.0227,-0.0137,-0.0576,0.467,-0.0186,1.57,-0.05,-0.181,-0.161,0.000705
TCAAGCA,0.111,0.175,-0.00758,-0.257,0.0146,-0.548,0.0585,0.0906,-0.0059,0.113
GCCTAGT,-1.05,-0.0533,0.0857,0.045,-0.0467,-0.314,-2.37,0.0172,0.0508,-0.137
AGTGACC,0.085,0.0643,0.0241,0.672,-0.0746,1.11,0.0562,0.0595,-0.109,-0.0583
CGCAAAG,0.0579,0.0883,-0.554,-0.344,0.12,-0.905,0.188,0.0672,0.12,0.14
ACAGGCC,-0.098,-0.0181,-0.218,-0.158,0.0593,-0.723,0.155,0.087,0.0685,0.0571
GCAAATT,0.0195,-0.0683,0.0244,-1.27,0.0663,0.0041,-0.29,0.0514,-0.0272,0.0729
TCCATCT,-0.023,0.000623,-0.0308,-1.72,0.0233,-0.701,-0.102,-0.0185,-0.0244,-0.0891
CCTGAAT,0.0523,0.044,0.0218,-0.285,-0.0286,-0.324,-0.292,-0.0447,-0.0389,0.0158
TGAGCAG,0.109,-0.0141,-0.377,-0.441,-0.0378,-0.897,0.0786,-0.0171,-0.0277,-0.152
ATCTTGC,-0.0409,0.00866,-0.822,-0.145,-0.00821,-0.931,0.119,-0.144,-0.0204,-0.105

Sequence,uncleaved DNA left (log2) [1],uncleaved DNA left (log2) [2],uncleaved DNA left (log2) [3],uncleaved DNA left (log2) [4],uncleaved DNA left (log2) [5],uncleaved DNA left (log2) [6],uncleaved DNA left (log2) [7],uncleaved DNA left (log2) [8],uncleaved DNA left (log2) [9],uncleaved DNA left (log2) [10]
GGGAGAT,-0.0459,0.105,0.841,2.09,-0.131,2.24,0.172,0.0767,-0.0476,0.19
TGTGATC,-0.0232,-0.109,0.294,0.533,-0.125,0.766,-0.0666,-0.106,-0.0722,-0.0823
AATCTAC,0.0876,0.0276,-0.124,-1.56,0.0765,-0.267,0.00458,0.0643,-0.00357,0.0202
ATTTAGC,0.088,-0.00377,-0.432,-0.657,0.055,-1.16,0.159,0.031,0.0506,0.00261
AAATCTA,-0.13,0.172,-1.9,-2.72,0.109,-1.17,-1.24,-0.241,0.111,-0.521
GTCACCT,0.0528,0.116,0.175,0.341,-0.0495,1.42,-0.0621,1.37e-06,-0.0267,0.0709
AAAAGAA,0.0275,-0.0348,-0.0281,-0.425,0.0165,-0.54,0.116,0.198,-0.121,0.0874
AACGACT,0.00633,0.112,0.0154,0.313,0.0859,1.62,0.0222,-0.0215,-0.0512,0.0552
TCCAGAA,0.0576,-0.0598,0.191,0.0123,-0.0977,-0.435,-0.0161,0.0701,-0.199,-0.00742
TCTATAT,0.157,-0.164,0.00881,-0.601,0.0972,-0.425,-0.423,-0.14,-0.00159,-0.0688
GAGGCAA,-0.00612,0.064,0.765,1.8,-0.000266,2,0.0838,0.0768,0.0579,0.132
CCAGAAT,0.141,0.156,0.287,0.215,0.184,0.484,0.0552,0.166,0.18,0.153
ATCTCCG,0.131,0.0606,-0.832,-0.791,0.0081,-1.01,0.115,0.0049,-0.0178,-0.12
CCGATAG,-0.0114,-0.125,-0.727,-0.565,-0.0109,-0.971,0.0713,0.0695,-0.0591,-0.119
CACCACA,-0.0956,0.128,-0.208,-2.01,0.0213,-0.721,0.0256,-0.114,0.0664,0.071
GACTATT,-2.58,-2.55,-1.16,-2.31,-1.04,1.16,-3.05,-0.557,0.0295,-0.0866
CCACGAT,-0.218,0.0164,-0.0493,-1.1,-0.116,0.162,-0.0931,-0.168,-0.07,-0.107
TGCGTCC,-0.0467,-0.0919,-0.18,-0.374,-0.0278,-0.619,-0.0603,-0.061,-0.0531,-0.0642
GGGGCAG,0.062,0.201,0.958,2.11,0.00129,2.31,0.236,0.111,-0.25,0.119
GGAACCC,-0.000207,0.0994,0.641,1.34,0.0293,1.98,-0.0366,0.102,0.162,0.166

Sequence,uncleaved DNA left (log2) [1],uncleaved DNA left (log2) [2],uncleaved DNA left (log2) [3],uncleaved DNA left (log2) [4],uncleaved DNA left (log2) [5],uncleaved DNA left (log2) [6],uncleaved DNA left (log2) [7],uncleaved DNA left (log2) [8],uncleaved DNA left (log2) [9],uncleaved DNA left (log2) [10]
CGGCTGA,0.0453,0.0733,0.0314,0.674,0.00382,1.69,0.0663,0.111,0.0737,0.1
AACCATG,0.039,0.0484,-0.521,-0.436,0.096,-1.01,-0.00615,0.0563,0.0853,0.106
GAGGCGA,0.00461,0.021,-0.0936,0.00404,0.0474,-0.18,0.109,-0.00163,0.0339,-0.0491
TAGAGAG,0.0936,0.0101,-0.39,-0.51,0.0323,-1.11,0.0473,0.11,0.0173,-0.0337
CACTTAT,-1.25,-2.42,-0.295,-2.33,-0.0812,-0.785,-3.64,-0.117,-0.196,-0.227
ACAGTAA,0.0574,-0.00811,-0.116,-0.267,-0.00692,-0.585,0.0333,0.159,0.0101,-0.0244
GCAGGAC,0.0324,0.0315,0.614,1.69,0.0146,1.77,0.16,0.152,0.0309,0.177
GTAGATT,0.0565,-0.0396,0.309,0.622,-0.011,1.71,-0.0558,0.163,-0.0252,0.0588
TATTGTC,-0.181,0.0517,-0.357,-0.798,0.134,-1.36,-0.172,-0.0201,0.185,0.0427
TTTAAGT,-0.151,-0.228,-0.12,-0.642,-0.118,-0.987,-0.431,-0.209,-0.19,-0.27
TTTTCAC,0.0396,0.00259,0.111,-0.112,-0.0407,-0.199,0.128,-0.000841,0.0171,0.0662
CCACCGG,-0.0882,-0.0827,0.252,0.912,-0.187,1.27,-0.0594,-0.0294,-0.146,-0.161
AACCGTC,0.0122,-0.0615,-0.0521,-0.607,-0.0372,-0.978,-0.196,-0.13,-0.0803,-0.197
GGTACTC,0.0315,0.079,0.679,1.59,-0.0777,2.06,0.208,-0.0347,0.0645,0.0718
AATTACC,-0.013,-0.158,-0.32,-2.51,-0.03,-0.364,-1.99,-0.0407,0.134,-0.0797
ATTATGC,0.0459,-0.0261,-0.546,-0.515,0.0314,-1.12,0.0836,-0.0874,0.0981,0.043
CTGGCGT,-0.0806,-0.157,-0.772,-0.652,-0.0965,-0.771,-0.0705,-0.249,-0.128,-0.214
GGCAGCT,-0.0356,-0.0592,0.359,0.876,-0.0933,1.13,0.111,-0.165,-0.16,-0.0146
ATATGCC,-0.0924,-0.124,-0.535,-0.659,-0.00518,-1.11,0.112,-0.0655,0.0106,-0.196
AGTGCGA,0.0256,-0.084,-0.723,-0.0884,0.0593,-0.721,0.0407,-0.0998,0.166,-0.0429
